Whole data set: some 33,000 sequences, median “E-score (-0.5 to 0.5)” near -0.035, cut for the highest 2% near 0.35. The list shows a part of the results.
molecular target: T1, Pdr3 (UniProt P33200); assay: PBM E-score (8-mer binding enrichment) (E-score (-0.5 to 0.5)); higher = stronger / more preferred TF binding; most listed sequences are background and not binding sites; conditions: protein concentration: 200 nM; construct: GST-full length
T1 sequence: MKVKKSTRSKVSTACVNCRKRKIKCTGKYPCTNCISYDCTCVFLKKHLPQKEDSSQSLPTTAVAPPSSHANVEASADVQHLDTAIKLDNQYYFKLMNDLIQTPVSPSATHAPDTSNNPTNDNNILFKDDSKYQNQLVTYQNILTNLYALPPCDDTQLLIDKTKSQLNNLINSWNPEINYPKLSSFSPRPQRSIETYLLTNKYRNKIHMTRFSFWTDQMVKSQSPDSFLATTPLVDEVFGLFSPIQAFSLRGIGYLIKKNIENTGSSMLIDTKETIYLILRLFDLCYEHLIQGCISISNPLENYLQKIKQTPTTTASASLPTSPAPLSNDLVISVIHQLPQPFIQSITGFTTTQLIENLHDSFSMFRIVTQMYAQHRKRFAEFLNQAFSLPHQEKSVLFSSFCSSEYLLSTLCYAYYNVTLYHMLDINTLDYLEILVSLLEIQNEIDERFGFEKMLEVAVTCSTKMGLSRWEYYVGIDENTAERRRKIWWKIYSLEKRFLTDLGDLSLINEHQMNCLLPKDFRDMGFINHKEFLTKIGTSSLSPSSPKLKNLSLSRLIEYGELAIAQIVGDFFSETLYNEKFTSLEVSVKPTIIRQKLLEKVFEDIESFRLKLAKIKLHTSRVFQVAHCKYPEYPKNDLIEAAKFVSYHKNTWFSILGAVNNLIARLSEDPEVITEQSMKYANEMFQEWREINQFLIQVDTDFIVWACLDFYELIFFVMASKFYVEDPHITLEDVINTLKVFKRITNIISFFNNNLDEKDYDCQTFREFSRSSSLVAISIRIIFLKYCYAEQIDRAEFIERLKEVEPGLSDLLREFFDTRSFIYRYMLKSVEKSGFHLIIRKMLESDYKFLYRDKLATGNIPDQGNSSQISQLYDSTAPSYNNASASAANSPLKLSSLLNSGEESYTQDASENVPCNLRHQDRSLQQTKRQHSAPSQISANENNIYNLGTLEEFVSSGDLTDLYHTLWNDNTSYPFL
Procedure, shortened: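 For each ungapped eight-base word taken together with its reverse complement, the Universal PBM Analysis Suite assigned an E-score. Binding data came from GST-tagged yeast transcription factors, applied at about 100-200 nM, on universal all-10-mer Agilent arrays made double-stranded by primer extension. Fluorescent anti-GST marked bound protein, and scans were normalised with masliner.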

Sequence	PBM E-score
CATCGAGG	-0.0993
AGTGCCCC	-0.24
GTGCTCAA	0.0359
ACCCACTA	0.146
TAGGGTAA	0.0439
ACGTGAAA	-0.0344
CGCCATTC	0.228
ATCATGAT	0.0245
ACGTCAAG	-0.311
AAGGCACA	-0.143
GGTCATAA	0.00216
CCGTGCAC	0.0846
AAATGCCA	-0.0841
GGCGCGAC	0.246
AGAAAGTA	-0.167
ATCGAGAT	-0.0696
GCACTCCC	-0.0906
CGCCTTGA	-0.0572
TCGGTCAA	-0.0504
CGTCGCTA	-0.0343
AAAGACCG	-0.0526
GAAACTGA	-0.149
CCGACCTA	0.0987
AATTTAGC	-0.00469
CACTACAA	0.0182

Sequence	PBM E-score
ACGCGACG	-0.0337
AAAGTTCT	0.098
ACGGCGAT	0.0347
ACATAAGT	-0.099
GATTAAGC	0.17
AAACTTCA	0.0366
CTCCCCGA	0.053
CAAATCTG	-0.116
CACTATGG	-0.157
CTTTACGC	-0.178
CAATCCAG	-0.098
AGCGTCAT	-0.185
CAAAGCGG	0.0507
AGAGTGTG	-0.227
ACAGTTAG	-0.123
ACACATAG	-0.164
GACTCGTA	-0.249
GAGCCTAA	-0.166
ATAATTCA	0.00953
GAAGGCGC	-0.155
CGTTAACG	0.167
CAAGAACC	-0.0533
TGCCGTAA	-0.187
TCTGACAA	-0.217
CCGTTCCA	0.207

Sequence	PBM E-score
CGCAACTA	0.0897
AGCTATTA	-0.0411
AGAAACCA	-0.0168
GGGGAAAA	0.0506
ATCCTAGC	-0.212
GTTCTACA	-0.312
CGGCTGCA	0.209
CATAGGAC	-0.25
CAGAACGA	-0.147
AGATCGCC	-0.0825
GCTACGTA	-0.0852
ACTTGCAT	-0.00547
ATTGCAGC	0.0135
ACAGCGGG	0.0641
CCCATACA	-0.178
ACCTAAAC	-0.0256
ATGCCTGG	-0.172
ACCCGTGC	0.0845
CAAGATTG	-0.0446
CCTGCAGG	0.0988
CATAGTCA	-0.157
AGAAGAGG	-0.146
ATAACTAC	-0.0673
CACCCCTC	-0.0494
CGAGTCTC	-0.216

Sequence	PBM E-score
CGACCTAA	0.137
GTTTATAA	0.156
CTTTATTC	-0.0926
CCCTGGCC	-0.121
GCCACCGC	0.122
ATCGGTTA	0.112
GAAGAAAA	0.0392
TCGCCAAA	-0.153
ATTTGCTG	-0.0695
CCTCATTA	-0.0236
AATATCAC	0.0412
CAGCGACC	-0.0515
AAGTCAAC	-0.205
AGTTCTCG	0.0419
AAAGGCAT	0.0123
AGCTGAGC	0.0762
CTGCGATC	-0.119
GGAGGCGA	-0.0273
AATCCTTG	0.0606
GAGCCCCC	-0.218
CCTTGCTA	-0.0832
CAAGCGGA	0.299
ACGGCTCT	0.0134
ATCCCCGA	0.303
CAATAAGA	-0.172

Sequence	PBM E-score
ATACTTCA	-0.232
ATCTTAAA	-0.124
CGTCTGAC	-0.077
CTAGTGAG	-0.0557
CTTAACTA	-0.171
ATCTTAAG	-0.188
ATCAGAAA	-0.0967
AACGCCCC	0.179
ATTCTCAG	-0.127
AATAGGGC	-0.119
ACTTTCAT	-0.144
CAGGTGGA	-0.213
TGTAACAA	-0.0769
GCAATAGA	-0.166
AACACGTT	-0.0474
CTCCTTTA	-0.15
AAGAAATA	-0.0975
ATGCTATA	-0.21
ATCACAAC	-0.0179
TCTGCAAA	-0.146
AGCGCCGA	0.109
AGAGCCTA	-0.239
GTACATAC	-0.0511
GAAAAAGC	0.153
ACGAAAAG	-0.0456

Sequence	PBM E-score
CAACTGAC	-0.106
GCTCCACA	-0.188
CGGTGAAA	0.224
AAGAAGAT	0.0216
GGGGCACC	-0.0217
ATACAATG	0.00582
AATGGGAA	-0.205
AACATGGC	-0.108
ATGAGTAA	-0.0184
AGAAAGTG	-0.177
ATTGCATC	-0.0463
CTTTTCCC	-0.106
AAAGTAAA	-0.16
TAAAAGCA	-0.133
AGAATAAT	-0.11
TCTTGGAA	-0.0351
AGGCCACC	0.00968
AGGCTCAC	-0.172
CTTCGGAA	0.438
GACCCCCC	-0.248
ATACTTCG	0.152
AGCATTTC	-0.0981
CACTTAAA	-0.165
AAAGTTGA	-0.0975
CCTCTACA	-0.121

Sequence	PBM E-score
ATGTTTGG	-0.0599
AAGCGCCG	0.28
CCAACAAC	-0.0644
GATCTTGA	-0.0386
GGACGAAA	0.223
GCCATGCC	0.13
GCATTGGA	0.00526
GAAGGGTA	0.0783
ATACTAAT	-0.0439
GTGGGTTA	-0.0589
CATAATAC	-0.164
CAGATATG	0.0599
ATTCTAGC	-0.215
TCAAAGAA	-0.191
AAGCGATG	-0.14
GGAGATTA	0.0129
TGGGCCAA	-0.0919
GAAAACAA	0.0322
CAGGTGGG	0.0371
CAAGATAC	-0.177
ATAAGCAT	-0.169
ATGTATAA	-0.0267

From the supplement of paper PMC3334620
